This is an account of results in publication PMC6212790.

The list shows a part of the results. At the low end of the ranking, values are background and their order means little.

In the assay the target is T1, GST-Rok (full length) (UniProt O34857).
T1 sequence: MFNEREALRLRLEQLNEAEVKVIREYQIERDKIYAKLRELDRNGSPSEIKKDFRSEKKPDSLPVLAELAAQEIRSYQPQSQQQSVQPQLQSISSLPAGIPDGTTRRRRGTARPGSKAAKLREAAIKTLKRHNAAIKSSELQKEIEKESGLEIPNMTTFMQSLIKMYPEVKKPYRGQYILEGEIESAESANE
Description: protein binding microarray.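 Note: rank score from −0.5 (least bound) to 0.5 (best bound).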 Particulars: Rok is a gene silencer of Bacillus subtilis; high values mean tight binding; most listed sequences are background and not binding sites; double strand, one strand shown.
CGGACTAA yielded a binding signal of 0.0922 E-score.
Sequence CCCGACTC yielded a binding signal of -0.213 E-score.
Next, GTCAGCCA: -0.148 E-score.
The same measure for CTAACTCA: 0.181 E-score; for TATTAACA: 0.283 E-score.
Next, AAGGGTTC: -0.306 E-score; AACCAAAG: -0.0704 E-score.
AAAGCAGA came in with a binding signal of 0.0688 E-score.
The sequence AAAAAGGG registered a binding signal of -0.249 E-score.
The same measure for GTGGTAAA: 0.192 E-score; for CCACCGTA: 0.00802 E-score.
Sequence ACACCCAA registered a binding signal of -0.106 E-score.
Next, ACAACGCG: 0.0629 E-score.
Next, AAGGGAAG: -0.223 E-score; CAACATCC: 0.131 E-score; GGCCCCTA: -0.414 E-score.
Sequence AAATTTGT returned a binding signal of 0.235 E-score.
Next, AGGCTTGA: -0.216 E-score; TACCATCA: 0.128 E-score.
CCAAATTC showed a binding signal of -0.141 E-score.
CGCATATC: the binding signal worked out at 0.131 E-score.
Regarding ATATGGGA, the binding signal worked out at 0.0879 E-score.
Next, CAGCGAGC: -0.234 E-score; GCGCAAAA: -0.0246 E-score; AGATATCC: -0.0591 E-score.
As to CGCTAAAC, the binding signal amounted to 0.118 E-score.
Sequence TATAATCA yielded a binding signal of 0.257 E-score.
For the sequence AAATGACA, the binding signal is -0.0146 E-score.
Next, GTAAGCCA: 0.0338 E-score; GTGATCCA: 0.00987 E-score.
As for CCAGTTCC, the binding signal was -0.263 E-score.
Sequence AGCCCAAA gave a binding signal of -0.17 E-score.
The same measure for AGGGGTCA: -0.223 E-score; for ACGTTCTC: 0.0202 E-score.
For the sequence GACGATCA, the binding signal was -0.189 E-score.
The same measure for GAAGGTCA: -0.045 E-score; for AATGTATA: 0.388 E-score.
Regarding AGCATACC, the binding signal amounted to 0.0206 E-score.
Next, TTATTCAA: -0.176 E-score; TCGCCCAA: -0.202 E-score.
Consider CGTGCAAG, for which the binding signal was -0.124 E-score.
Next, CGTCGGAA: -0.00391 E-score.
ACGTAAGT had a binding signal of -0.0971 E-score.
The same measure for CAATAAGG: -0.1 E-score; for CCAACTAG: 0.0738 E-score.
The sequence ATTGTTGG came in with a binding signal of -0.0396 E-score.
Turning to CAAGATAA, the binding signal is 0.0746 E-score.
Regarding CTAGACCA, the binding signal was -0.172 E-score.
Next, ACCGCAAA: 0.0214 E-score.
ACATCAAG gave a binding signal of 0.00272 E-score.
Regarding CCGAGTCA, the binding signal was -0.159 E-score.
AACCTGTG yielded a binding signal of -0.123 E-score.
Next, GAAACGCA: -0.154 E-score.
Consider AGTGAGTA, for which the binding signal amounted to 0.0952 E-score.
The same measure for ACAGCGGT: -0.174 E-score.
The sequence ATTCATGG yielded a binding signal of 0.0276 E-score.
Next, AAGGTCAG: -0.0568 E-score; GCGCTTAC: -0.113 E-score.
The same measure for ACCCTCAT: 0.00761 E-score; for AGCTGCCG: -0.245 E-score.
The same measure for CCTGCTAG: -0.219 E-score.
CATGCGCA had a binding signal of -0.235 E-score.
The same measure for ATCCTACG: -0.0168 E-score; for CTTCAAAG: -0.242 E-score.
GCAACAAA: the binding signal turned out to be 0.153 E-score.
As to TAGACACA, the binding signal turned out to be 0.018 E-score.
Next, CTTTTCAA: -0.159 E-score.
The sequence AAAGGTGC came in with a binding signal of -0.136 E-score.
In the case of AAAACCGC, the binding signal was -0.232 E-score.
As for GGGTGACA, the binding signal is -0.236 E-score.
In the case of GGATCGTA, the binding signal was determined as 0.0948 E-score.
Next, AATTCGTC: 0.17 E-score; CCTATCCG: -0.256 E-score; CAACTGGG: -0.201 E-score.
Sequence AACGAATG showed a binding signal of 0.106 E-score.
The same measure for AGTAAGGG: -0.227 E-score; for CAGTCACA: -0.0227 E-score; for CCAACGTA: 0.045 E-score.
For ATATAAAA, the binding signal came to 0.288 E-score.
Next, ATACAAGC: 0.163 E-score.
In turn, GCAGATGA gave a binding signal of -0.0924 E-score.
The same measure for ACTGGAGA: -0.0659 E-score.
As for AAGGTCTG, the binding signal was -0.177 E-score.
Regarding CTTAAGCC, the binding signal was -0.275 E-score.
Next, CTCACAGA: -0.131 E-score; CCAACGAG: -0.125 E-score.
The same measure for ACAGAGAG: -0.123 E-score.
Next, GCGCCATA: -0.034 E-score.
In turn, AATGCGCG registered a binding signal of 0.145 E-score.
CGCACCAC registered a binding signal of -0.117 E-score.
Next, CCATGCGA: -0.186 E-score.
The same measure for GTAAATGA: 0.0501 E-score; for ACCTTTGG: -0.212 E-score.
The sequence ACACCCGC yielded a binding signal of -0.169 E-score.
The same measure for CGACAGAC: -0.0568 E-score; for CTCCGTTC: -0.0616 E-score.
With CGGTGGAC, the binding signal is -0.199 E-score.
For CAGCAATC, the binding signal was 0.037 E-score.
CGTACGTA: the binding signal is 0.148 E-score.
With GCCTGCCC, the binding signal is -0.341 E-score.
Sequence GCATGTCA had a binding signal of -0.0408 E-score.
The same measure for CCTGAAGA: -0.0739 E-score.
Next, GCCTCAGC: -0.283 E-score; ACAGATTC: 0.15 E-score.
CAATCGCG came in with a binding signal of 0.0351 E-score.
The same measure for AAGGGCCC: -0.428 E-score.
The same measure for CAACGTTG: 0.174 E-score; for CAATAAAG: 0.029 E-score; for AGGATTAG: 0.158 E-score.
ATACGGTG had a binding signal of 0.0458 E-score.
Next, CCCCGGCC: -0.345 E-score; TGGCACCA: 0.0347 E-score; CTCACACC: -0.0119 E-score.
Sequence CGATTCAC yielded a binding signal of -0.012 E-score.
The sequence AAAGTTAA gave a binding signal of -0.107 E-score.
GGAGCGAC: the binding signal is -0.265 E-score.
Next, TCCCGTAA: 0.154 E-score.
Turning to ATATTGCC, the binding signal came out at 0.0852 E-score.
The same measure for ACAGTTCC: -0.0713 E-score; for GCTTGACA: -0.211 E-score.
The same measure for AGAATTTA: 0.26 E-score.
Next, CAGTAGAG: 0.142 E-score; CTAATGGA: 0.12 E-score; CTTAATTA: 0.21 E-score.
With ATTCTGTG, the binding signal was 0.219 E-score.
Next, ACCACCGG: -0.176 E-score; ACATTATA: 0.325 E-score.
Next, CTTGTCCA: -0.152 E-score; CCTTACGA: -0.0248 E-score.
Next, CCGGCCGA: -0.105 E-score; GAGGCTGC: -0.367 E-score.
ATACGCCG displayed a binding signal of -0.0298 E-score.
As to CGGGTGTC, the binding signal is -0.11 E-score.
Next, CTATCCAG: 0.12 E-score.
Consider ACGTCTCA, for which the binding signal was -0.157 E-score.
The sequence AGTTGCGC showed a binding signal of -0.0122 E-score.
The same measure for CTCGTCTC: -0.0848 E-score; for ACTCTCCG: -0.144 E-score; for CAATGCCA: -0.106 E-score.
Turning to CTAGTTGA, the binding signal came out at 0.226 E-score.
Take TTCGTCAA: the binding signal was -0.0914 E-score.
GAGCACGA registered a binding signal of -0.315 E-score.
The sequence CCCAAGAA yielded a binding signal of -0.178 E-score.
Consider TAAAGTAA, for which the binding signal was determined as 0.15 E-score.
On to AGTATGCC, for which the binding signal came out at 0.0544 E-score.
The same measure for AATACGAG: 0.0931 E-score; for CCTAAAGA: -0.0275 E-score.
Next, ACAAACAG: 0.0829 E-score; CGTCGTTC: -0.0713 E-score; ACGTCTAG: 0.115 E-score.
Next, GCGATAAC: 0.0793 E-score; TCAGGGGA: -0.229 E-score.
With GCCTACAA, the binding signal amounted to 0.107 E-score.
The same measure for CTTCGTCA: -0.188 E-score; for GGGCCTGA: -0.45 E-score; for GTAGCTTA: 0.191 E-score.
CCTGCGCC returned a binding signal of -0.204 E-score.
With GGAATTCC, the binding signal is -0.149 E-score.
The same measure for AGTAGTAC: 0.336 E-score.
The same measure for GGGATAAC: -0.0138 E-score.
Next, GGTGAGGA: -0.18 E-score.
In turn, GACGTGCA yielded a binding signal of 0.00485 E-score.
The same measure for CCTTAAAA: -0.117 E-score; for AAATATAG: 0.317 E-score; for ACGTCACT: 0.101 E-score.
In turn, ATAAATTG yielded a binding signal of 0.336 E-score.
Next, CCGTACCA: -0.11 E-score; CGTACCTA: 0.141 E-score; AGACACGA: -0.179 E-score.
In the case of GGCGATGA, the binding signal is -0.211 E-score.
Next, CGGATGCA: -0.166 E-score.
Next, ATGGTTCA: -0.188 E-score.
